Test results taken from PubChem BioAssay AID1346428 (National Center for Advancing Translational Sciences (NCATS), 2018).
In all, about 48,000 compounds went through this assay and about 1,200 (2.5%) were called active. About 2% were inconclusive and are not listed.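 Rule for the calls: active = activation of at least 60% and not above a set upper limit (about 1 call in 100 departs from these limits); inconclusive = activation of 40% to 60%, or above that upper limit; inactive = activation under 40%.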 This is one part of the list.

Molecular target: Probable G-protein coupled receptor 32 (Homo sapiens) (UniProt O75388)
Chain of UniProt O75388 (O75388 whole entry, looked up): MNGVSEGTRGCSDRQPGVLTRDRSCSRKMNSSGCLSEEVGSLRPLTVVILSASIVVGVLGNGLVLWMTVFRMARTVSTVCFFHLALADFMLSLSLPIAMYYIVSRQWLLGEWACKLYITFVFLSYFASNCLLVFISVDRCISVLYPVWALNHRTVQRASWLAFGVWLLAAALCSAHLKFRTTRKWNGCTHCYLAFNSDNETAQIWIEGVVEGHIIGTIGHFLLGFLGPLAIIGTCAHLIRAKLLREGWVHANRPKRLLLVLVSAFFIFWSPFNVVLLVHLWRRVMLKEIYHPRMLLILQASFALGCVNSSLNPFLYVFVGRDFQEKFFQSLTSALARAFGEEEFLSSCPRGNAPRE
Experiment: qHTS for Agonists of Human Resolvin D1 Receptor DRV1
Conditions: CHO-K1 GPR32 beta-arrestin PathHunter luminescence, 90 min; at 76.9 µM; active compounds read high; zero percent set by DMSO-only wells
Procedure, shortened: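 Using DMSO wells as EC0, agonist-induced signal was taken as chemiluminescence from beta-Gal reconstituted upon beta-arrestin recruitment to GPR32 in CHO-K1 cells after 90 min compound treatment.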

Structure (SMILES)	activation
Cc1ccc(CN2C(=O)N(c3ccccc3)C(=O)C2CC(=O)Nc2ccccc2)cc1 (centres undefined)	inactive: 19.1%
COc1ccccc1NC(=O)Cn1nnc(C(=O)Nc2ccccc2Br)c1N	inactive: 2.45%
CCc1cccc(C)c1NC(=O)Cn1cc2c(n1)CCCCC2	inactive: -2.86%
CCC(C)NC(=O)CSc1nc(-c2ccc(F)cc2)cc(C(F)(F)F)n1 (centres undefined)	inactive: 12.4%
COC(=O)c1ccccc1NC(=O)c1cnc2sc(N3CCOCC3)nn2c1=O	inactive: -5.8%
CC(=O)N1CCN(c2csc3ccc(Br)cc3c2=O)CC1	inactive: -58.8%
Cc1ccc(CNC(=O)c2cc(=O)c3cc(C)cc(C)c3o2)cc1	inactive: 4.78%
CCOc1ccc(NC(=O)c2cc3cc4cc(OC)ccc4nc3s2)cc1	inactive: -8.93%
CCc1nn(CCCC(=O)NCc2cc(Br)ccc2OC)c(=O)c2cc3occc3n12	inactive: -23.8%
COc1cccc(C(=O)Nc2cccc(C(=O)OCc3cc(=O)n4c5c(sc4n3)CCCC5)c2)c1	inactive: -11%
Cc1cccc(NS(=O)(=O)c2ccc3c(c2)OCC(C(=O)N2CCCC2)O3)c1C (centres undefined)	inactive: -13.4%
O=c1c2cccnc2n(Cc2cccc(F)c2)c(=O)n1Cc1ccccc1Cl	inactive: -19.7%
Cc1ccc(-c2nnc(Nc3ccc(O)cc3)c3ccccc23)cc1S(=O)(=O)N1CCCCC1	inactive: -34.3%
COc1ccc2cc(CNc3ccc(C)cc3)c(=O)n(CC(=O)Nc3cccc(C(F)(F)F)c3)c2c1	inactive: -29.5%
CCOC(=O)CSc1nc2c(sc3cccc(F)c32)c(=O)n1Cc1ccc(OC)cc1	inactive: -33.1%
O=C(NCCS(=O)(=O)N1CCN(c2ccc(F)cc2)CC1)C1CC(=O)N(c2ccccc2)C1 (centres undefined)	inactive: -7.62%
COc1ccccc1-n1c(=O)c2c3c(sc2n(Cc2ccccc2F)c1=O)CN(C(C)=O)CC3	inactive: -4.8%
CC(C)(C)C(=O)Nc1ccc2nc(SCC(=O)N3CCc4ccccc43)sc2c1	inactive: 47.1%
Cc1ccc(S(=O)(=O)c2cn(CC(=O)Nc3ccc4c(c3)OCO4)c3ccccc3c2=O)cc1C	inactive: -0.966%
CCOc1ccc(CCNC(=O)c2cccc(-n3c(C)nc4cccnc43)c2C)cc1	inactive: -0.043%
CCOC(=O)CCCN1C(=O)CCn2nc(-c3cn(C)c4ccccc34)cc21	inactive: -24.6%

Structure (SMILES)	activation
O=C(Nc1ccc(C(=O)OCc2cc(=O)n3nc(C4CC4)sc3n2)cc1)c1cccc(Cl)c1	inactive: -12.5%
CCc1ccccc1NC(=O)C(CC)Oc1ccccc1-c1nnc(-c2ccccc2)o1 (centres undefined)	inactive: -1.84%
CCCCN(Cc1ccccc1)S(=O)(=O)c1cc(Br)cc2c1N(C(C)=O)CC2	inactive: 5.17%
O=C1CC(c2ccc(Cl)cc2)c2cc3c(cc2N1)OCCO3 (centres undefined)	active: 80.4%
COc1ccc(C(=O)Nc2c(C(=O)c3ccc(F)cc3)oc3ccccc23)cc1	inactive: -2.55%
CCc1cccc(C)c1NC(=O)C1CCN(S(=O)(=O)c2cccc3nonc23)CC1	inactive: -8.93%
CCCSc1ncc(Cl)c(C(=O)Nc2scc(-c3ccc(C)cc3)c2C(=O)OCC)n1	inactive: -13.2%
O=C1NC(=O)[C@@]2(CCOc3ccc(F)cc32)N1	inactive: -23.1%
CCOCCCNC(=O)c1cc(=O)[nH]c2ccc(S(=O)(=O)N3CCCC3)cc12	inactive: -3.06%
CCOc1ccc(CNC(=O)c2cccn2-c2nnc(N3CCCCC3)s2)cc1OC	inactive: 12%
CCCCC(=O)Nc1c(C(=O)N2CCN(c3ccccc3)CC2)oc2ccccc12	inactive: -32.3%
COc1ccc(-c2nc3c(c(SCC(=O)Nc4ccccc4OC)n2)Cc2cccc(C)c2O3)cc1	inactive: -1.97%
CCCCCn1c(=O)[nH]c2cc(C(=O)N3CCN(c4cccc(OC)c4)CC3)ccc2c1=O	inactive: 35.7%
Cc1cc(C)cc(OCc2cc(=O)n3c4c(sc3n2)CCCC4)c1	inactive: -22.7%
CCC(C)NC(=O)Cc1ccc(NC(=O)N2CCCCc3ccccc32)cc1 (centres undefined)	inactive: -7.21%
CC(C)Oc1ccc(CNC(=O)C2CCCCN2S(=O)(=O)c2ccc(F)cc2)cc1 (centres undefined)	inactive: -4.43%
O=C(CS(=O)(=O)c1cccc2nsnc12)Nc1ccc(F)cc1F	inactive: -10.4%
N#Cc1ccccc1NC(=O)C(=O)NCC(c1ccc2c(c1)OCO2)N1CCOCC1 (centres undefined)	inactive: -11.7%
Cc1ccc(-n2c(=O)c3oc4ccccc4c3n(CC(=O)Nc3ccc(F)c(Cl)c3)c2=O)cc1C	inactive: -20.4%
CC(=O)N1CCOc2cc(S(=O)(=O)Nc3c(C)cccc3C(C)C)c(Cl)cc21	inactive: -32.6%
CC(C)CCNC(=O)c1c2c(nc3ccccc13)C(=O)N(C1CCCCC1)C2	inactive: -1.93%

Structure (SMILES)	activation
Cc1ccc(-c2nc(CS(=O)CC(=O)N3CCN(c4ccc(F)cc4)CC3)c(C)o2)cc1 (centres undefined)	inactive: 9.81%
CCCCN(C)C(=O)c1ccc2c(c1)N(Cc1ccc(F)cc1)C(=O)c1ccccc1S2(=O)=O	inactive: -30.6%
O=C(Nc1ccccc1F)C1CCN(S(=O)(=O)c2ccc3c(c2)CCCN3C(=O)C2CCC2)CC1	inactive: -13.8%
CCc1cccc(C)c1NC(=O)c1ccc2c(c1)CCN2S(=O)(=O)CC	inactive: 1.86%
CC(=O)Nc1ccc(NC(=O)c2cc(-c3cccs3)on2)cc1	inactive: 36.2%
O=C(CSC1=Nc2ccccc2N=C(c2ccc(F)cc2)C1)Nc1ccc(Cl)cc1	inactive: -0.713%
COc1ccc(Cl)cc1NC(=O)NCCc1c(C)nn(C)c1C	inactive: 15.4%
COc1ccc(OC)c(NC(=O)Cn2c(=O)n(Cc3nc(C)no3)c(=O)c3ccccc32)c1	inactive: -9.8%
COc1ccc(Nc2ncnc3onc(C)c23)c(OC)c1	inactive: -6.66%
Cc1ccc(Sc2c(C)nn(C(=O)c3ccc(Br)cc3)c2C)cc1	inactive: 39.6%
CC(C)(C)c1nnc(NS(=O)(=O)c2ccc(N)cc2)s1	inactive: 7.68%
COc1ccccc1CNS(=O)(=O)c1ccc2c(c1)CC(C)N2C(=O)C1CCC1 (centres undefined)	inactive: 19.1%
COc1ccc(N2CCN(C(=O)C(C)n3c(=O)cc(C(F)(F)F)c4c(C)nn(C)c43)CC2)cc1 (centres undefined)	inactive: 27.6%
CCOc1ccc(NC(=O)c2cc(C)nc3c2c(C)nn3-c2cccc(F)c2)cc1	inactive: -23%
Cn1cnc(S(=O)(=O)N2CCCC(C(=O)NCc3ccccc3)C2)c1 (centres undefined)	inactive: -12.5%
Cc1cccc(N2CCN(C(=O)Cn3ncc4c([nH]c5ccccc54)c3=O)CC2C)c1 (centres undefined)	inactive: -5.62%
COc1ccc(-c2cc(C)no2)cc1S(=O)(=O)NC1CCC(C)CC1 (centres undefined)	inactive: -4.59%
Cc1ccc(NC(=O)C2CCCN2S(=O)(=O)c2ccc3c(c2)C(C)(C)C(=O)N3C)cc1 (centres undefined)	inactive: -3.46%
Cc1ccc(S(=O)(=O)c2nc(-c3ccco3)oc2SCc2ccc(F)cc2)cc1	inactive: -11.1%
CC1(C(=O)NC2CCCCC2)Cc2ccccc2C(=O)N1Cc1ccc(F)cc1 (centres undefined)	inactive: -13.7%
COc1ccc(S(=O)(=O)NCCc2sc3nc(-c4ccc(C)cc4)nn3c2C)cc1F	inactive: 3.3%

Structure (SMILES)	activation
O=C(CSc1nc2ccccc2nc1Cc1ccccc1)Nc1ccccc1C(F)(F)F	inactive: -44.4%
CCOc1ccc(-n2ccnc2SCC(=O)Nc2ccc3c(c2)OCO3)cc1	inactive: -0.501%
Nc1nc(F)nc2c1ncn2[C@@H]1O[C@H](CO)[C@@H](O)[C@@H]1O	inactive: 3.3%
CCOc1ccc(CNC(=O)c2cnc3sc(N(CC)CC)nn3c2=O)cc1	inactive: -10.1%
O=C(NCCS(=O)(=O)N1CCN(c2ccccc2F)CC1)C1CC(=O)N(c2ccccc2)C1 (centres undefined)	inactive: -17.7%
COc1cccc(NC(=O)c2c(N3CCCC3=O)c3cc(C)ccc3n2C)c1	inactive: 9.29%
CCCNc1ncnc2c1c(-c1ccccc1)cn2-c1ccc(OCC)cc1	inactive: -39.4%
COc1ccc(NC(=O)CCn2c(-c3ccc(F)cc3)cc(C(C)=O)c2C)c(OC)c1	inactive: -15.8%
O=c1cc(CSc2ccccc2)[nH]c2ccc(F)cc12	inactive: 16.2%
COc1ccc(-c2cc(C(C)=O)c(C)n2CCC(=O)Nc2ccc(C)c(Cl)c2)cc1	inactive: -26%
O=C(COc1ccc(F)cc1)Nc1ccc(S(=O)(=O)N(Cc2ccccc2)c2ccccc2)cc1	inactive: -11.4%
CCc1ccc(CNC(=O)c2sc3nc[nH]c(=O)c3c2C)cc1	inactive: 1.09%
CCCOc1ccc(C(=O)Nc2ccc(-c3cc4ccccc4oc3=O)c(C)c2)cc1	inactive: 11.1%
CCc1ccc(Nc2nnc(-c3cc4cc(OC)ccc4oc3=O)s2)cc1	inactive: -6.57%
Cc1ccc(NC(=O)c2c(C)oc3ccc(O)c(CN(C)Cc4ccccc4)c23)c(C)c1	inactive: -24.5%
CCc1c(C)nc(SCc2nc(-c3ccccc3C)no2)[nH]c1=O	inactive: 28.8%
COc1ccc(OC)c(CNc2ncnc3c2nc2n3CCCC2)c1	inactive: -11.4%
COc1cc(NC(=O)C(NS(=O)(=O)c2ccc3c(c2)CCCC(=O)N3)C(C)C)cc(OC)c1 (centres undefined)	inactive: 10.5%
CCOc1ccc(S(=O)(=O)c2c(C(=O)c3ccc(C)c(C)c3)cnc3ccccc23)cc1	inactive: -16.5%
Cc1ccc(CNC(=O)CCc2nnc3n(C)c(=O)c4sccc4n23)cc1	inactive: 3.36%
Cc1ccc(NC(=O)c2sc3nc(-c4ccncc4)ccc3c2N)cc1	inactive: -2.88%
